# Measured values as given in the supplement of paper PMC9446081.
# The whole screen tested about 39,000 compounds, of which about 220 (0.56%) showed activity. This is one part of the list.
# Test system: Escherichia coli K-12 BW25113
# Experiment: relative growth (OD600 normalised to plate interquartile mean) (fraction); higher = less growth inhibition, active = 0.2 or less
# Settings: 50 µM; LB; incubation time: overnight (16-24 h)
# 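Note: static incubation at 37 °C against the wild-type strain, values averaged over two biological replicates.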
row,SMILES,relative growth
1,CN1C(=O)c2cc(NC(=O)C3CCOCC3)ccc2OC[C@H]2O[C@H](CC(=O)NCCc3ccncc3)CC[C@H]21,inactive: 1.01
2,Cc1ccc(NC(=O)C[C@@H](N)C(=O)O)cc1,inactive: 1.01
3,C=CCNC(=O)[C@@H]1[C@H]2C(=O)O[C@H](c3ccccc3)[C@H](c3ccccc3)N2[C@H](c2ccc(OCCO)cc2)[C@@]12C(=O)Nc1ccc(C#CC3(O)CCCCCC3)cc12,inactive: 1.07
4,C[C@@H]1CN([C@H](C)CO)C(=O)c2cc(NS(=O)(=O)c3ccc(Cl)cc3)ccc2O[C@@H]1CN(C)Cc1ccc(-c2ccccc2)cc1,inactive: 1.03
5,C[C@@H]1CCCCO[C@@H](CN(C)C(=O)c2ccccc2)[C@@H](C)CN([C@@H](C)CO)C(=O)c2cc(NC(=O)Nc3ccc(F)cc3)ccc2O1,inactive: 1.03
6,CCCN(C)C[C@@H]1OCCCC[C@H](C)Oc2ccc(NC(=O)CCC(F)(F)F)cc2C(=O)N([C@@H](C)CO)C[C@@H]1C,inactive: 1
7,C[C@H]1CN([C@@H](C)CO)C(=O)Cc2cc(NS(=O)(=O)c3cn(C)cn3)ccc2O[C@H]1CN(C)CC1CCCCC1,inactive: 1.02
8,COc1cccc(S(=O)(=O)N(C)C[C@@H]2OCc3cnnn3CCCC(=O)N([C@H](C)CO)C[C@@H]2C)c1,inactive: 0.999
9,Cc1ccc(Cn2nnc3c(=O)n(CC(N)=O)cnc32)cc1,inactive: 0.987
10,COc1ccc(-c2cc(=O)c3c(O)cc(O[C@@H]4O[C@H](CO)[C@@H](O)[C@H](O)[C@H]4O[C@@H]4O[C@H](COC(C)=O)[C@@H](O)[C@@H](O)[C@H]4O)c(O)c3o2)cc1,inactive: 0.993
11,COc1cc(CO)c(CC(=O)NN)cc1OC,inactive: 0.999
12,CC(C)C[C@H](NC(=O)[C@H](CCCCN)NC(=O)CNC(=O)[C@H](CC(C)C)NC(=O)[C@@H](NC(=O)[C@@H]1CSSC[C@H](N)C(=O)N[C@@H](CO)C(=O)N[C@@H](CC(N)=O)C(=O)N[C@@H](CC(C)C)C(=O)N[C@@H](CO)C(=O)N[C@@H]([C@@H](C)O)C(=O)N1)C(C)C)C(=O)N[C@@H](CO)C(=O)N[C@@H](CCC(N)=O)C(=O)N[C@@H](CCC(=O)O)C(=O)N[C@@H](CC(C)C)C(=O)N[C@@H](Cc1c[nH]cn1)C(=O)N[C@@H](CCCCN)C(=O)N[C@@H](CC(C)C)C(=O)N[C@@H](CCC(N)=O)C(=O)N[C@H](C(=O)N[C@@H](Cc1ccc(O)cc1)C(=O)N1CCC[C@H]1C(=O)N[C@@H](CCCNC(=N)N)C(=O)N[C@H](C(=O)N[C@@H](CC(=O)O)C(=O)N[C@H](C(=O)NCC(=O)N[C@@H](C)C(=O)NCC(=O)N[C@H](C(=O)N1CCC[C@H]1C(N)=O)[C@@H](C)O)C(C)C)[C@@H](C)O)[C@@H](C)O,inactive: 0.916
13,c1ccc(CNc2nn[nH]n2)cc1,inactive: 0.97
14,C[C@@H]1CN([C@@H](C)CO)C(=O)c2cc(NS(=O)(=O)c3ccccc3)ccc2O[C@@H]1CN(C)Cc1ccncc1,inactive: 0.998
15,COc1ccc(OC)c(S(=O)(=O)N2[C@@H]3CC[C@@H](C3)[C@H]2c2nc3cccc(OCc4ccc(F)cc4)c3[nH]2)c1,inactive: 1.03
16,C[C@H]1CCCCO[C@H](CN(C)C(=O)Nc2ccc(C(F)(F)F)cc2)[C@@H](C)CN([C@@H](C)CO)C(=O)c2cc(NC(=O)C3CCCCC3)ccc2O1,inactive: 1.02
17,C[C@@H]1CN([C@@H](C)CO)S(=O)(=O)c2ccc(C#Cc3ccncc3)cc2O[C@@H]1CN(C)C(=O)c1ccncc1,inactive: 0.999

row,SMILES,relative growth
1,C[C@@H]1CN([C@H](C)CO)C(=O)c2cc(C#CC3CCCC3)cnc2O[C@@H]1CN(C)C(=O)Cc1ccccn1,inactive: 1.03
2,C[C@@H]1CN([C@H](C)CO)S(=O)(=O)c2ccc(Br)cc2O[C@@H]1CN(C)C(=O)C1CCCCC1,inactive: 1.03
3,C[C@@H]1CN([C@H](C)CO)C(=O)c2cc(NC(=O)Nc3ccccc3)ccc2O[C@@H](C)CCCCO[C@H]1CN(C)S(=O)(=O)c1ccccc1,inactive: 0.93
4,Cc1noc(C)c1NC(=O)Nc1ccc2c(c1)CC(=O)N([C@@H](C)CO)C[C@@H](C)[C@@H](CN(C)S(=O)(=O)c1cccs1)O2,inactive: 1.01
5,Cc1ccc(S(=O)(=O)N(C)C[C@H]2Oc3ccc(NC(=O)Cn4cnnn4)cc3CC(=O)N([C@@H](C)CO)C[C@H]2C)cc1,inactive: 0.991
6,C[C@@H]1CN([C@H](C)CO)C(=O)CCCn2nncc2CO[C@H]1CN(C)C(=O)Nc1ccccc1C(F)(F)F,inactive: 0.988
7,Cc1ccccc1S(=O)(=O)N1C[C@H](O)COC[C@H]2O[C@H](CC(=O)NCc3ccccc3Cl)CC[C@@H]21,inactive: 1.01
8,CCCc1ncc(C[n+]2ccccc2C)c(N)n1.[Cl-],inactive: 0.917
9,COCC#Cc1ccc2c(c1)O[C@@H](CN(C)C(=O)Nc1ccccc1F)[C@H](C)CN([C@@H](C)CO)S2(=O)=O,inactive: 0.992
10,COc1ccc(NC(=O)N(C)C[C@H]2Oc3ccc(NS(=O)(=O)c4c(C)noc4C)cc3C(=O)N([C@@H](C)CO)C[C@@H]2C)cc1,inactive: 1.01
11,CCNC(=O)C[C@@H]1CC[C@H]2[C@@H](COC[C@@H](O)CN2S(=O)(=O)c2ccc(Oc3ccccc3)cc2)O1,inactive: 1.01
12,O=C(COc1ccc(S(=O)(=O)N2CCOCC2)cc1)N1CCOCC1,inactive: 1.04
13,N[C@@H](Cc1ccc(Cl)cc1)C(=O)O,inactive: 1
14,COc1ccc(NC(=O)Nc2cccc3c2O[C@@H](CN(C)Cc2ccc(C(F)(F)F)cc2)[C@@H](C)CN([C@@H](C)CO)C3=O)cc1,inactive: 0.986
15,CC1CC2C3CCC4=CC(=O)C=CC4(C)C3(F)C(O)CC2(C)C1(O)C(=O)COP(=O)([O-])[O-].[Na+].[Na+] (centres undefined),inactive: 1.01
16,C[C@@H]1CN([C@@H](C)CO)C(=O)Cc2cc(NC(=O)CCN3CCOCC3)ccc2O[C@@H]1CN(C)Cc1ccncc1,inactive: 1.01
17,COc1ccc(S(=O)(=O)Nc2ccc3c(c2)C(=O)N([C@H](C)CO)C[C@@H](C)[C@@H](CN(C)S(=O)(=O)c2c(C)noc2C)O3)cc1,inactive: 0.996
